Article PMC4792956
Read-outs that look alike come from different tables or passages of the source. Results are given in words; binding and its absence hold for the method and conditions named. In cells and extracts the contact can be indirect. Some binding calls cover weakened binding; strength is not graded here. For some of these results: Where a sequence is shown, tags or fusion partners need not be part of it. Values belong to the molecule of their own block, whether it stands above or below them.

Amino acid sequences for entries named in this document (tags omitted). A change or cut given only in a name is not applied to a line headed by its entry. Chains listed by the source or under a name are the forms on record and can include a tag or linker. Residues count along the entry.
UniProt Q9V3Z6: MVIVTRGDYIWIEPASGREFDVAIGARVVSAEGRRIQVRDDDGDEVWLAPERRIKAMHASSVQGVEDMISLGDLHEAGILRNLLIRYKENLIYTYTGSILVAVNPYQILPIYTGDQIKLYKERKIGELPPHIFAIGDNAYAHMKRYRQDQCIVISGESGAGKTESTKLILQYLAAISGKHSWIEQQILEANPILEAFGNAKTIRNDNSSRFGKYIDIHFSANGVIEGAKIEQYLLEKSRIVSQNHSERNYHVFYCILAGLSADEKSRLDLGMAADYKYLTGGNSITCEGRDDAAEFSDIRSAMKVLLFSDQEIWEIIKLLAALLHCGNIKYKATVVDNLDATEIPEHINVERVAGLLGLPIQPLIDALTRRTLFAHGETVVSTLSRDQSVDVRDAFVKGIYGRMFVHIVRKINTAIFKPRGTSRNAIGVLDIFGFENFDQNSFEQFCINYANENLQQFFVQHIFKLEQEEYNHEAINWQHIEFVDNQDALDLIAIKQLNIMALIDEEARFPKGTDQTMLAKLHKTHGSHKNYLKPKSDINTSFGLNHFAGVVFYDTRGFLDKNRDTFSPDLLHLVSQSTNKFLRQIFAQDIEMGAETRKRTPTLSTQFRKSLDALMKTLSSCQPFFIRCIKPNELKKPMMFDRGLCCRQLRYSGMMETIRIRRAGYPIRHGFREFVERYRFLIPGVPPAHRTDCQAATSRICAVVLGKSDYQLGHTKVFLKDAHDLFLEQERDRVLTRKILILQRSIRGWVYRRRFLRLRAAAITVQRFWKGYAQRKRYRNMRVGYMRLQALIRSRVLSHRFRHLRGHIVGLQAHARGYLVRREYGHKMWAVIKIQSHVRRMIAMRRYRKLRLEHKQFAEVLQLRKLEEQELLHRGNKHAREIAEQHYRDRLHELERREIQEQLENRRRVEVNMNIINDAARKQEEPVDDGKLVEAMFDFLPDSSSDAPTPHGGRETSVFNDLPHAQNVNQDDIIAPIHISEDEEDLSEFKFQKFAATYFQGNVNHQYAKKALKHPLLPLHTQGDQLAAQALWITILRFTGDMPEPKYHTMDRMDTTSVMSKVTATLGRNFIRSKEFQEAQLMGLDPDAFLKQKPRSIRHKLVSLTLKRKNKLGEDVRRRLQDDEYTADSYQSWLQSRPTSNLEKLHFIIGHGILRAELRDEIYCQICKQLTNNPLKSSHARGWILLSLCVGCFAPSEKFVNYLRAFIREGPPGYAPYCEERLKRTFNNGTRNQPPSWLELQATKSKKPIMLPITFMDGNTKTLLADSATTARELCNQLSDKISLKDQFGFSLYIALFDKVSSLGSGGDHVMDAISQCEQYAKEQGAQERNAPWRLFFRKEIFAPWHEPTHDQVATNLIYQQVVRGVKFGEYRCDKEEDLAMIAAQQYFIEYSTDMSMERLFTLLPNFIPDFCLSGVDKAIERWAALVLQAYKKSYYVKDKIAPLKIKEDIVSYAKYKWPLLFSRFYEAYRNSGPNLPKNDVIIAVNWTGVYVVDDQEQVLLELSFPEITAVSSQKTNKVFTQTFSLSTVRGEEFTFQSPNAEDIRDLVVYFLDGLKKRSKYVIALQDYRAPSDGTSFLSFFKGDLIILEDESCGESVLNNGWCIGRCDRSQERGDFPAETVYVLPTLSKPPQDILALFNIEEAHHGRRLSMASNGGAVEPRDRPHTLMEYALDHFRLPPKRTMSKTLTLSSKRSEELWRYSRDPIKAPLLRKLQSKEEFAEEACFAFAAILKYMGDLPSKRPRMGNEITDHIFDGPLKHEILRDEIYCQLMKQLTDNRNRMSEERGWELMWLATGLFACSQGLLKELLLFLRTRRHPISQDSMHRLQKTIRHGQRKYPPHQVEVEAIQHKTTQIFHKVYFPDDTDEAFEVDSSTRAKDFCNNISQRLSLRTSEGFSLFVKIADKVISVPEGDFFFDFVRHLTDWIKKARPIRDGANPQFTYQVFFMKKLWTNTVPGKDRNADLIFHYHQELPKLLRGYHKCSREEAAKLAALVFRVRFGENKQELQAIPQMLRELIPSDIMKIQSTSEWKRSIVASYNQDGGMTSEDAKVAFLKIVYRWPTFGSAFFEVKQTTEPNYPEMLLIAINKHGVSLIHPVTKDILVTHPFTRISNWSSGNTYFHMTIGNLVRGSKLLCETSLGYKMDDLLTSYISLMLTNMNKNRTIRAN
HA-tagged CK 998-1,668 (Drosophila (D. melanogaster)): residues 998-1668 of Q9V3Z6
V5-SGG46 (P18431-1, form named): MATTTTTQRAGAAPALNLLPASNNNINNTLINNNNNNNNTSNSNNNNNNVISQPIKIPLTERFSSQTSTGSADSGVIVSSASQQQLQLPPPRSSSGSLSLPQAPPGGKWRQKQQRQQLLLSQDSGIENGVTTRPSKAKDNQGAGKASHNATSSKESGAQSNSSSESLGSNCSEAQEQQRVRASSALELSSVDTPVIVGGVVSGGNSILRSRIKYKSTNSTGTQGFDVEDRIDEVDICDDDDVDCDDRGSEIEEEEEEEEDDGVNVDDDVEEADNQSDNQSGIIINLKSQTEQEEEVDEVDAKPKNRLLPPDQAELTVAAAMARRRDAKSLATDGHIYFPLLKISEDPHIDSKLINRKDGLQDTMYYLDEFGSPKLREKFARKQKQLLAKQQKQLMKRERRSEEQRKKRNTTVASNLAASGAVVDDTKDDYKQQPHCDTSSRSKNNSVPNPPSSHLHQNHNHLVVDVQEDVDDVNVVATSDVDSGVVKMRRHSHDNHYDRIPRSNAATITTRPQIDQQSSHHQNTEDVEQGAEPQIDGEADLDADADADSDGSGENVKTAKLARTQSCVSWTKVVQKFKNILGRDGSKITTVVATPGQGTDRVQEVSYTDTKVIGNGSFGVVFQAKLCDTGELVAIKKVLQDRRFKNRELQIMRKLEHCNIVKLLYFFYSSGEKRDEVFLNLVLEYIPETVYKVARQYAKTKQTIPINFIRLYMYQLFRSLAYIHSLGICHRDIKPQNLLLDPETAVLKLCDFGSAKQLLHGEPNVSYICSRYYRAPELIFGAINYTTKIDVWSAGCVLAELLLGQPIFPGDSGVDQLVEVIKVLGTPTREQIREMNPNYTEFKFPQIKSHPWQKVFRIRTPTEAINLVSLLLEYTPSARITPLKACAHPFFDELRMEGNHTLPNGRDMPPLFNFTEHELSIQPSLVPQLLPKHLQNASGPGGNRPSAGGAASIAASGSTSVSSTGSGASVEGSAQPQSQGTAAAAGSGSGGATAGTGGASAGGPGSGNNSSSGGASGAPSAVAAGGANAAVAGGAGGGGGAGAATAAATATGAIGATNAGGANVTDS

Columns and labels:
MYC-DRONC (Drosophila) = target: T1, MYC-DRONC (Drosophila) (UniProt Q9XYF4); assay: co-IP; co-expressed in Drosophila S2 cells; α-MYC immunoprecipitation, immunoblotting; lysis in 50 mM Tris pH 7.5, 150 mM NaCl, 0.1% Triton X-100, 10% glycerol, 1 mM EDTA
T1 sequence: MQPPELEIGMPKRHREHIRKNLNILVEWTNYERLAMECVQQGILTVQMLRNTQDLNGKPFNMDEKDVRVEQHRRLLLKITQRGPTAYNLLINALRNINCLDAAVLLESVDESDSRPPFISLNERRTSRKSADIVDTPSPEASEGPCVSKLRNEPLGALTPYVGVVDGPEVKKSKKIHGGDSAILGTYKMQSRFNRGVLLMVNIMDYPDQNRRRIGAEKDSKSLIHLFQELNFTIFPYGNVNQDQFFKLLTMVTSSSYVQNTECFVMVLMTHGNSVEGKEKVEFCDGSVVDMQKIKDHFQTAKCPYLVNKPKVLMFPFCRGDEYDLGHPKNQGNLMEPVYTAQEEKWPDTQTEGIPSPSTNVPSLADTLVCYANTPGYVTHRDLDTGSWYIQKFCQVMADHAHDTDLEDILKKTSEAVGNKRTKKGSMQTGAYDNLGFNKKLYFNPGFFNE

[1] = target: HA-CK (Drosophila (D. melanogaster)) (UniProt Q9V3Z6); assay: co-IP; co-expressed in Drosophila S2 cells; α-HA immunoprecipitation, immunoblotting; lysis in 50 mM Tris pH 7.5, 150 mM NaCl, 0.1% Triton X-100, 10% glycerol, 1 mM EDTA
[2] = target: HA-CK (Drosophila (D. melanogaster)) (UniProt Q9V3Z6); assay: as above; remark: listed apart in the source
[3] = target: HA-tagged CK 998-1,668 (Drosophila (D. melanogaster)) (UniProt Q9V3Z6); assay: as above
[4] = target: T2, endogenous RIPK1 (SWISS-3T3 cells) (mouse (endogenous in SWISS-3T3)) (UniProt Q60855); assay: proximity ligation; in situ PLA (Duolink) on endogenous proteins in fixed SWISS-3T3 cells; TNF treatment, with control or MYO7A RNAi
T2 sequence: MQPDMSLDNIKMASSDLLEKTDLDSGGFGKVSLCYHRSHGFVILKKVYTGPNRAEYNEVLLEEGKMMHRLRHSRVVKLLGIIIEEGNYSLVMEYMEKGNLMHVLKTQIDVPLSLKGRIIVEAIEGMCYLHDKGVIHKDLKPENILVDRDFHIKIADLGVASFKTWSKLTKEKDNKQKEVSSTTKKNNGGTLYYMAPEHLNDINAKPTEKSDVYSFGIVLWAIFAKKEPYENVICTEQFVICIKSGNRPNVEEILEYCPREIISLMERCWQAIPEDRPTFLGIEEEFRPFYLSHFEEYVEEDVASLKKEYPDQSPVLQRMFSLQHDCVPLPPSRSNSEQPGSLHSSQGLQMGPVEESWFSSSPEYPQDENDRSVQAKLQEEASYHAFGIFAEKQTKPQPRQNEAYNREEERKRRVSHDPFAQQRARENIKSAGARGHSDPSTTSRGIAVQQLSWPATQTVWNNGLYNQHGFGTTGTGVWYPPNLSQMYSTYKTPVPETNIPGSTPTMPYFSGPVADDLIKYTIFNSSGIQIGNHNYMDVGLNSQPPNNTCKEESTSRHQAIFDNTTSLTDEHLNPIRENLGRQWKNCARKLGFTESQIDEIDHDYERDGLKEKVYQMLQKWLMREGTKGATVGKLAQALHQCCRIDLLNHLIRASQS

binding (MYC-DRONC (Drosophila)): binds
Molecule: HA-CK (from UniProt Q9V3Z6 1-2167)

binding [1]: binds
Molecule: V5-SGG46 (from UniProt P18431-1 1-1067) (enzyme)

binding [2]: no binding
B1: V5-DIAP1 (protein, UniProt Q24306 1-438)
chain: MASVVADLPSYGPIAFDQVDNNTNATQLFKNNINKTRMNDLNREETRLKTFTDWPLDWLDKRQLAQTGMYFTHAGDKVKCFFCGVEIGCWEQEDQPVPEHQRWSPNCPLLRRRTTNNVPINAEALDRILPPISYDICGANDSTLEMREHAYAEGVIPMSQLIQSIGMNAVNAAGSVTGTAAPQPRVTVATHASTATQATGDVQPETCRPSAASGNYFPQYPEYAIETARLRTFEAWPRNLKQKPHQLAEAGFFYTGVGDRVRCFSCGGGLMDWNDNDEPWEQHALWLSQCRFVKLMKGQLYIDTVAAKPVLAEEKEESSSIGGVAVASTQASEEEQQTSLSSEEAVSGDVAPSVAPTAATRIFNKIVEATAVATPSTNSSGSTSIPEEKLCKICYGAEYNTAFLPCGHVVACAKCASSVTKCPLCRKPFTDVMRVYFS

binding [2]: no binding
B2: V5-drICE (enzyme, UniProt O01382 1-339)
chain: MDATNNGESADQVGIRVGNPEQPNDHTDALGSVGSGGAGSSGLVAGSSHPYGSGAIGQLANGYSSPSSSYRKNVAKMVTDRHAAEYNMRHKNRGMALIFNHEHFEVPTLKSRAGTNVDCENLTRVLKQLDFEVTVYKDCRYKDILRTIEYAASQNHSDSDCILVAILSHGEMGYIYAKDTQYKLDNIWSFFTANHCPSLAGKPKLFFIQACQGDRLDGGVTMQRSQTETDGDSSMSYKIPVHADFLIAYSTVPGFYSWRNTTRGSWFMQSLCAELAANGKRLDILTLLTFVCQRVAVDFESCTPDTPEMHQQKQIPCITTMLTRILRFSDKQLAPAGRV

binding [2]: binds | binding [3]: binds
B3: V5-tagged full-length DRONC (enzyme, UniProt Q9XYF4 1-450)
chain: T1 sequence

binding [4]: binds
B4: endogenous CASP8 (SWISS-3T3 cells) (enzyme, UniProt O89110 1-480)
chain: MDFQSCLYAIAEELGSEDLAALKFLCLDYIPHKKQETIEDAQKLFLRLREKGMLEEGNLSFLKELLFHISRWDLLVNFLDCNREEMVRELRDPDNAQISPYRVMLFKLSEEVSELELRSFKFLLNNEIPKCKLEDDLSLLEIFVEMEKRTMLAENNLETLKSICDQVNKSLLGKIEDYERSSTERRMSLEGREELPPSVLDEMSLKMAELCDSPREQDSESRTSDKVYQMKNKPRGYCLIINNHDFSKAREDITQLRKMKDRKGTDCDKEALSKTFKELHFEIVSYDDCTANEIHEILEGYQSADHKNKDCFICCILSHGDKGVVYGTDGKEASIYDLTSYFTGSKCPSLSGKPKIFFIQACQGSNFQKGVPDEAGFEQQNHTLEVDSSSHKNYIPDEADFLLGMATVKNCVSYRDPVNGTWYIQSLCQSLRERCPQGDDILSILTGVNYDVSNKDDRRNKGKQMPQPTFTLRKKLFFPP
